In publication PMC4336329 (PLoS ONE, 2015):
In all, about 310,000 compounds went through this assay and about 2,200 (0.71%) showed an effect of 50% or more. The effect is printed as a negative number. The list shows a part of the results.

What follows are compounds tested against human ether-à-go-go-related gene (hERG) potassium channel (human, UniProt Q12809) (assay: primary screen, population patch clamp on CHO cells stably expressing hERG).
Sequence of human ether-à-go-go-related gene (hERG) potassium channel (Q12809 whole entry, looked up): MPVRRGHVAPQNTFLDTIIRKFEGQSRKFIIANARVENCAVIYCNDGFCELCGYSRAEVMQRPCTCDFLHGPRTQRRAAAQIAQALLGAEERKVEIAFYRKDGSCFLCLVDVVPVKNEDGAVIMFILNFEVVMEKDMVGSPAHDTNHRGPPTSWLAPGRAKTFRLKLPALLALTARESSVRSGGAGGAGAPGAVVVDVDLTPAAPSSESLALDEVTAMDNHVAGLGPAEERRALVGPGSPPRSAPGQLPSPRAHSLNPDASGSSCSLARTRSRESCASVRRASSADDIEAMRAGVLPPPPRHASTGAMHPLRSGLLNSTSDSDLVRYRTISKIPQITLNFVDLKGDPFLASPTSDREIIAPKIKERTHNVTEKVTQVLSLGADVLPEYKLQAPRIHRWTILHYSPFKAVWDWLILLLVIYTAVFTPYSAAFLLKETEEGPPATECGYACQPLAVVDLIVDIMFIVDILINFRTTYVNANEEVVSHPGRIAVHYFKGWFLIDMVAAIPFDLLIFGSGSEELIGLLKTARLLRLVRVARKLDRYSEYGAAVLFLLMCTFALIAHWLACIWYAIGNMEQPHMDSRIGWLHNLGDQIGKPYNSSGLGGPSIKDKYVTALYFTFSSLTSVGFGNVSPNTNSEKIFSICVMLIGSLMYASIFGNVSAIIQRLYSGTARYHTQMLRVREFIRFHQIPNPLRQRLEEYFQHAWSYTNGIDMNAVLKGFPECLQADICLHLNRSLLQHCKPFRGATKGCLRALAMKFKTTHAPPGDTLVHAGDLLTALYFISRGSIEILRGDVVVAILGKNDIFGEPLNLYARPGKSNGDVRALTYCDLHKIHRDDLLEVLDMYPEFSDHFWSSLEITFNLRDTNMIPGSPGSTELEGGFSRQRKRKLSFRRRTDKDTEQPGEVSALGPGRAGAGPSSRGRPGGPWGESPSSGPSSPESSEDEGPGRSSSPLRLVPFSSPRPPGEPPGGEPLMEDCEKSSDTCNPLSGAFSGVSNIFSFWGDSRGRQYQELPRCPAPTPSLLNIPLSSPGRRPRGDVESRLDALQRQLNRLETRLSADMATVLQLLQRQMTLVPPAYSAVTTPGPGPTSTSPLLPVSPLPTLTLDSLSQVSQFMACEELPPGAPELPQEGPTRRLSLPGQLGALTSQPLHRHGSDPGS

Row | SMILES | hERG current change (%, negative = inhibition) at 1uM
1 | CC(C)(C)NC(=O)Nc1ccc(F)c(Cl)c1 | 2.78%
2 | Cc1ccc(NC(=O)CCNC(=O)Cn2cnc3ccccc3c2=O)cc1F | 11.5%
3 | CCOc1ccc(/C=C/C(O)=C2/C(=O)N(C)C3(C)CC2c2ccccc2O3)cc1OC (centres unmarked) | 13.7%
4 | CC(C)Cn1c(N)c(C(=O)CSc2nnnn2C)c(=O)n(C)c1=O | 11.7%
5 | Cc1ccc(CNS(=O)(=O)c2ccc3c(c2)NC(=O)CS3)cc1 | 8.53%
6 | Cc1n[nH]c(=O)c2c(NC(=O)CSc3nnc(-c4ccncc4)n3C)oc(C)c12 | 11.1%
7 | COc1cc2c(cc1OC)CN(c1ccc([N+](=O)[O-])cc1Cl)CC2 | 0.193%
8 | O=C(CCN1C(=O)C2C3C=CC(C3)C2C1=O)NCCc1ccccc1Cl (centres unmarked) | 9.05%
9 | COc1cc2[nH]c(=S)n(N(C(C)=O)C(C)=O)c(=O)c2cc1OC | 6.09%
10 | CC(NC(=O)c1ccccc1NC(=O)c1ccncc1)c1ccccc1 (centres unmarked) | 9.1%
11 | COc1ccccc1C1=NOC(C)(c2sc(-c3ccc(Cl)cc3)nc2C)C1 (centres unmarked) | 13.1%
12 | O=C(CCCSc1nc2ccccc2s1)NCc1ccc2c(c1)OCO2 | -2.37%
13 | CSc1cc(-c2ccncc2)nc(-c2ccc(Cl)cc2)c1 | 7.29%
14 | OC[C@H]1O[C@@H](O[C@@H]2[C@@H](CO)O[C@@](O)(CO)[C@H]2O)[C@H](O)[C@@H](O)[C@H]1O | 18.8%
15 | COC(=O)c1c(-c2ccc(F)cc2)csc1NC(=O)c1ccco1 | 18%
16 | O=C(NCCc1ccc(F)cc1)c1cccs1 | 11.2%
17 | COC(=O)c1sc(-c2ccccc2)cc1NC(C)=O | 20.8%
18 | Cc1ccc(C)c(S(=O)(=O)N2CCCC2CNC(=O)C(=O)NCc2ccccc2)c1 (centres unmarked) | -15.7%
19 | CC(=O)Nc1ccc(S(=O)(=O)N2CCN(c3ccccn3)CC2)cc1 | 5.71%
20 | O=C(CSc1nnc(-c2ccccc2)o1)N1CCOCC1 | 10%
21 | CCOC(=O)Cn1nc(C)c(NC(=O)COc2ccc(F)cc2F)c1C | 7.89%
22 | CC1(C)C(=O)OC(C(=O)c2ccc(C(C)(C)C)cc2)C(C)(C)C1=O (centres unmarked) | 10.7%

Row | SMILES | hERG current change (%, negative = inhibition) at 1uM
23 | CCS(=O)(=O)N1CCN(c2ccc([N+](=O)[O-])c(NCc3ccccc3)c2)CC1 | 1.14%
24 | CCOc1ccc(NC(=O)CN(C)C(=O)Cn2cnc3c2c(=O)n(C)c(=O)n3C)cc1OCC | 2.45%
25 | O=C(c1ccc2nc(Cc3cccc(Cl)c3)oc2c1)N1CCC(O)CC1 | 14.3%
26 | CC(=O)Nc1ccc(SCC(=O)c2cc(C)n(-c3ccccc3)c2C)cc1 | -5.05%
27 | Cc1ccccc1NC(=O)C(C)c1cccc(C(=O)c2ccccc2)c1 (centres unmarked) | 4.76%
28 | CCN1CCN(c2ccc(S(=O)(=O)N3CCOCC3)cc2NC(=O)c2ccc(C)c(C)c2)CC1 | 2.55%
29 | CCCN(C(=O)CSCc1ccccc1C)c1c(N)n(Cc2ccccc2)c(=O)[nH]c1=O | 7.56%
30 | COc1ccc2cc([C@H](C)C(=O)[O-])ccc2c1.[Na+] | 12.2%
31 | O=C(Nc1ccc(S(=O)(=O)N2CCCCC2)cc1)c1ccco1 | -5.45%
32 | Cn1c(SCC(=O)Nc2nc3c(s2)CCCC3)nnc1-c1ccccc1 | 6.91%
33 | CCN1CCN(c2nc(N)c([N+](=O)[O-])c(Nc3cccc(C)c3)n2)CC1 | -18.4%
34 | Cc1ccc(C(=O)N2CCC(C)CC2)cc1NC1=NC2CS(=O)(=O)CC2S1 (centres unmarked) | 6.45%
35 | COc1ccc(C2/C=C\CN(Cc3ccncc3)CC(=O)N2Cc2ccc(F)cc2)cc1 (centres unmarked) | -4.62%
36 | CCOC(=O)CNC(=O)N1CCC(CCOc2ccccc2)(C(=O)OCC)CC1 | 10.6%
37 | COc1ccc(C(C)=O)cc1COC(=O)c1cnc(Cl)c(Cl)c1 | 6.91%
38 | Cc1ccc(CN2CC(C(=O)NC(c3nc4ccccc4[nH]3)C(C)C)CC2=O)cc1 (centres unmarked) | 14.9%
39 | CCOC(=O)c1nn(-c2ccc(C)cc2)c(C)c1C(C)=O | 10.6%
40 | Cc1ccc(C(CC(=O)NCc2ccco2)c2ccc(OC(C)C)cc2)cc1 (centres unmarked) | 4.99%
41 | O=[N+]([O-])c1ccc(CSc2ncnc3ccccc23)cc1 | -2.34%
42 | O=[N+]([O-])c1ccc(OCC(O)CN(C2CCCCC2)C2CCCCC2)cc1 (centres unmarked) | -80.4%
43 | CCCn1c(=O)c2[nH]c(C3CCCC3)nc2n(CCC)c1=O | 13.9%
44 | COC(=O)CSc1nc(SCc2ccccc2Cl)nc2c1CCCC2 | 3.95%

Row | SMILES | hERG current change (%, negative = inhibition) at 1uM
45 | OCC1OC(Oc2cccc3ccccc23)C(O)C(O)C1O (centres unmarked) | 13%
46 | CCOC(=O)C1(CCc2ccccc2)CCN(Cc2ccc3c(c2)OCCO3)CC1 | -91.4%
47 | O=C(Nc1ccc(F)c([N+](=O)[O-])c1)C1CCCO1 (centres unmarked) | 14.2%
48 | O=C(Nc1ccccn1)Nc1ccccc1[N+](=O)[O-] | 9.93%
49 | O=C(CCCCCCCC(=O)NCC1CCCO1)NCC1CCCO1 (centres unmarked) | 5.35%
50 | Cc1c(Cl)c([N+](=O)[O-])nn1Cc1ccc(C(=O)N/N=C\c2cc(Cl)ccc2O)o1 | 7.63%
51 | Cc1cccc(NC(=S)NNC(=O)c2ccc3c(c2)OCO3)c1 | 19%
52 | COc1ccc(-c2csc(N3CCN(C(=O)c4ccco4)CC3)n2)cc1 | 0.773%
53 | CC(=O)Nc1ccc(N=Cc2ccc[nH]2)cc1 | 0.222%
54 | C=CCC1=C/C(=C\c2c(N)n3nc(CC(=O)N4CCOCC4)sc3nc2=O)C=C(OC)C1=O | 15%
55 | Cc1ccc(-c2cc(C(=O)Nc3ccccc3C(N)=O)c3ccccc3n2)o1 | 19.9%
56 | CCOc1ccc(OCc2ccc(C(=O)N3N=C(C(F)F)CC3(O)C(F)F)o2)cc1 (centres unmarked) | 12.5%
57 | CN(C)c1ccc(S(=O)(=O)N(C)C)cc1[N+](=O)[O-] | 10.7%
58 | CCOC(=O)N1CCN(CC(=O)Nc2cc(OCC)ccc2OCC)CC1.Cl | -31.1%
59 | COc1ccccc1CN(C)C(=O)CN1CCN(C(=O)c2cccs2)CC1 | 7.03%
60 | CC(CNC(=O)c1ccc(Br)o1)NC(=O)c1ccc(Br)o1 (centres unmarked) | 8.69%
61 | O=C(c1cn(-c2ccccc2)nc1-c1cccc([N+](=O)[O-])c1)N1CCCCC1 | 8.86%
62 | N#Cc1sc2nccc(Nc3ccccc3)c2c1N | 9.26%
63 | Cc1cc(C)cc(NS(=O)(=O)c2coc(C(N)=O)c2)c1 | 5.89%
64 | Cc1ccc(/C=C(\C#N)C(=O)NC(C)c2ccccc2)o1 (centres unmarked) | 19.8%
65 | CCOC(=O)C1=C(N)N2C(=O)CSC2=C(C(=O)OC)C1 | 12.5%
66 | CN1CCN(c2ccc(S(=O)(=O)N3CCCCC3)cc2NC(=O)COc2cccc(Cl)c2)CC1 | -1.99%

Row | SMILES | hERG current change (%, negative = inhibition) at 1uM
67 | COc1cc(Cl)ccc1OCc1cc(C(=O)NC(C)Cc2cccnc2)no1 (centres unmarked) | -2.27%
68 | COc1ccc(C)cc1NC(=O)CCNC(=O)c1ccco1 | 8.32%
69 | COC(=O)[C@H](Cc1ccccc1)NC(=O)O[C@@H]1C(=O)c2cc(OC)ccc2O[C@H]1c1ccc(OC)c(Br)c1 | 15.1%
70 | Cc1ccc(N2CN=c3s/c(=C\c4ccccn4)c(=O)n3C2)cc1 | 9.54%
71 | COc1ccc(CN(C(=O)CO/N=C/c2ccccc2)c2ccccc2C(=O)O)cc1 | 11.1%
72 | C(/C=C/c1ccco1)=N/N1CCN(c2ccccc2)CC1 | 10.8%
73 | O=C1C(Cc2cccc([N+](=O)[O-])c2)S/C(=N/N=C/c2ccco2)N1c1ccccc1 (centres unmarked) | 6.64%
74 | COc1ccc(NC(=O)C2CCC(=O)N2S(=O)(=O)c2ccc(C)cc2)c(OC)c1 (centres unmarked) | 1.85%
75 | O=c1c2c(-c3ccc([N+](=O)[O-])cc3)csc2nc2n1CCCCC2 | -9.37%
76 | Cc1nc2sc(C(c3cccc(F)c3)N3CCCCC3)c(O)n2n1 (centres unmarked) | 7.22%
77 | COc1ccccc1NC(=O)C/C(C)=N/NC(=O)C12CC3CC(CC(C3)C1)C2 | 9.83%
78 | Nc1c(C(=O)[O-])sc2nc3c(cc12)CCCC3 | 13.6%
79 | OC(COc1ccc(Br)cc1)CN1CCN(c2ccccc2)CC1 (centres unmarked) | 12%
80 | O=C(NCc1ccccc1)c1ccc2c(=O)n(CCCN3CCCC3=O)c(=S)[nH]c2c1 | 10.4%
81 | C=CCN1C(=O)/C(=c2\sc3nc(=O)c(Cc4ccccc4Cl)nn3c2=O)c2ccccc21 | 14.7%
82 | O=C(N/C(=C\c1ccccc1)C(=O)N1CCCCC1)c1ccco1 | 14%
83 | COc1ccc(/C=C/C(=O)OCC(=O)N2CCCCCC2)c(OC)c1 | -0.988%
84 | Cc1cccc(C)c1OCCSc1n[nH]c(N)n1 | 12.1%
85 | O=C(O)C1=C[C@H](c2cccs2)C[C@H](OCc2ccc(CO)cc2)O1 | 9.03%
86 | COc1ccc(CCNCC(=O)Nc2ccc(OC(F)F)cc2)cc1 | -37.4%
